The results in this text go back to the RNAGym collection of RNA variant scans (doi:10.7554/elife.90254).

The source gives no read counts; variants with many changes may rest on few reads.

First the molecules themselves.
B1: LINE1-full (parent)
chain: UACGUAGGUGGUUUUCCCCUGAUAGUGCUAAGGGGGCCUGGAAGUUUGGACUGGGCAGAGCUCAACACAGCGUGGCAAAGUGGCUGUGGCUAGACUGCCUCUCUGGAUUCCUCGUCACUCAGCAGGGCAUCUCUGAGAGAAAUGCC

In this series the parent is B1. Briefly: self-cleavage, relative activity (ratio to wild type); higher = more cleavage; in vitro, sequencing; the parent is a self-cleaving ribozyme.
Consider A6G G35U U47A A67G U91A U119C, for which the self-cleavage worked out at 0.25.
As for A43U U46A U52A U130C, the self-cleavage came out at 0.76.
The value for U45C U47C A141G was 2.3.
As to A30G A77U U81G A124G, the self-cleavage was found to be 1.56.
The value for A65U G80A A142C U143A was 0.07.
The value for U20A U23C U45A was 1.25; that for U15C U46G U109C U112C was 1.98.
The value for U13C G21A G34C U47C A142G was 0.77; that for U73A U130C U134C A141G was 2.04; that for A78G U104C A141G was 1.77.
With G4A A22G A31C A129U, the self-cleavage worked out at 1.28.
As for G36A U87C A142G, the figure is 0.17.
The value for U9C A42U U85C U108C U134C was 0.
In the case of U26A A79G A117U, the self-cleavage is 1.24.
As for G25A U100A U104C U108C A129G, the figure is 1.31; as for A2G G10U A129U, 0.87; as for A30U U62C U104C A124U, 0.
The value for U9A A22G A50G U62C U130A A141G was 0; that for U20C A31U G88A A142G was 0.04.
In the case of U13C A67G A78G, the self-cleavage came out at 0.26.
On to G44A U45C G122A, for which the self-cleavage amounted to 1.48.
As for A22G A57G U73A A78G, the figure is 0.27; as for A6G A78G U119C A121C, 0.
Turning to G60U A117U A138U, the self-cleavage was 0.04.
As for U12C U13C A69G A124U, the figure is 0.48; as for A59U A79G U85A A136U, 0.08; as for U81C G82A U115C U119A, 1.71.
As for U15C U20C U29C U45A, the figure is 0.
The value for C51A U112C C113U was 0.63; that for A22G U62C U108C was 0.1; that for A42U G53A A142G was 0.79.
For the variant U13C U46A U100A, the self-cleavage stood at 1.17.
The value for A43G U45C U112C was 0.
U62C A77U G97A: the self-cleavage stood at 0.01.
The value for U47C A65G U119C was 0; that for A6G A43G U45A was 0.91; that for U5C A22U A30U was 0.94.
The value for G8A A67G G70A was 0.06; that for G34A A42G U46A was 1.13; that for U45C G49U A57U A67G was 0.15.
The value for A124G U134A A136G was 0.42.
Consider G36C U87C U91C A117U A141G, for which the self-cleavage amounted to 0.07.
As for G32A G34A U52A A107G U143A, the figure is 0.66; as for U9C A94G G105A, 0.4.
The value for C56U A57C A69G U102A U109C U130C was 0; that for U1C G10A A43G G83A was 0.27.
As for G72U U85C A121U U132C, the figure is 0.22.
As to A30U U115C A140U, the self-cleavage was 1.99.
The value for U14C U20A G40U C84U was 0.1; that for U85C G106A A124U A129U was 0.11; that for G34A A79G C110U was 1.29.
The value for U12C A57G U85A was 0; that for U23A A24U U73A A78G was 0.19; that for U12G U87C A141G was 0.6.
The value for A6G U20A U39A was 1.37; that for A24G U39C G58U U81C G114C was 0.07; that for U12G C56G U108G was 0.21.
A6G U62A U96A: the self-cleavage came out at 0.16.
As for U20A A67G A124G, the figure is 0.08; as for A2G U39A U52C, 0.4; as for G114A U130A A140G, 1.28.
The value for A65G A69G G106U G139U U143A was 0; that for G34A A50G U52A A67G was 0.42; that for U13C A77U A129G was 0.7.
As for U13C A92G C103U, the figure is 0.35; as for U13A A92U G93A A94G, 0.02; as for U13C U20C A94U A136G, 0.31.
In the case of U12G A50G U81C U104A, the self-cleavage is 0.92.
The value for A31U U52C A77U A138U was 1.26; that for U15A A78U U87C G89A was 0.09; that for U87G U91A U130C was 0.
As for A22G A57G A64U A92G, the figure is 0.77; as for G32A A59C U87A, 0.02.
The value for U47C G53A A129G was 1.38.
With G8A A22G U52C U134G, the self-cleavage was determined as 1.15.
The value for U26A A69G G83C was 0.15.
The value for C28A A43G A77G A92G C113A was 0.05; that for U52C A77G A140U was 2.99; that for A30G U85C U104C A121U was 0.
The value for U13C U45C U47A A50G was 1.02.
In the case of G32A U62C C123A, the self-cleavage was determined as 0.04.
For U15A U62C A142G, the self-cleavage stood at 0.21.
As for U23C U45C A94U, the figure is 0.52.
In the case of U9G A43G A107C, the self-cleavage was 0.
As for U62C A117U A141G, the self-cleavage was 0.04.
As for G41A A42U A64U U96C, the figure is 0.17; as for U13C A67G U134A C146U, 0.65; as for U5A G34A U45G A67G, 0.22.
As for U12C U87C A107G G126A A129G, the figure is 0.18.
The value for U46C U112C U134C A138G was 2.85.
As for U29C A79G G139A, the self-cleavage was found to be 1.22.
As for U45C U52C A140G, the figure is 1.15; as for A31U U39A C90A A141G, 0.04; as for U130C A141G U143A, 1.29.
With C3U U39C A142G, the self-cleavage was determined as 0.84.
The value for A57U U73A U104A was 0.05.
Take U1C C38U A42G A117G A140G: the self-cleavage came to 0.
On to U39A A42G A107U, for which the self-cleavage is 1.28.
As for A59G A78G A138G, the figure is 0.18; as for U5C U20C A43G G82A, 1.23.
As for U39A G89U U102C, the figure is 0.05; as for U9A U45C A138G, 1.38.
The value for U20C U62A U109G A129G was 0.09; that for U26C A30G A31U U130C was 1.58.
U45C A67G A141G: the self-cleavage came to 1.02.
The value for U26C C90U A92G was 0.03; that for A42G C56A U112C was 0.04; that for U13C G32A A50G was 1.21.
As for U14C U108A U109G A121G A141G, the figure is 0.88; as for U45C A78G U85C, 0.66; as for U26A A65U U108C A121G, 0.
The value for A2G U14C A64G U130C was 0.51; that for A6G A43U A78G was 0.9; that for U26A U85A U119A was 0.
Turning to U47A A136U U143C, the self-cleavage worked out at 1.29.
Take U12C A64G A65G A77G: the self-cleavage was 0.
As for A42G A64G U81A U87A A136G, the figure is 0.15.
As for C16U A43C U62C U73A, the figure is 0.09.
G4A U14C U20C A117G U134C: the self-cleavage was 0.
As for A42G A78G A92G A140U, the figure is 0; as for U12C A77G C128U, 1.43; as for U104A U115G A141G, 2.47.
As for U15C U20C C61A U87C U96A U130C, the self-cleavage turned out to be 0.09.
As for U85C C113G U119C, the figure is 0.25.
The value for U12C U119C A141G was 1.45; that for A6U U26A U109A A129U U130C was 0.8.
With U14C U45C A136U, the self-cleavage was 1.68.
For A2G G41A A69U A79G, the self-cleavage came out at 0.
As to U13A G93U U115A A136U, the self-cleavage amounted to 0.
As for U14C A22U U96A, the figure is 0.27; as for A78G U87C U96G G122U, 0.19.
Consider A6G G7A U15C U45C A79G A140G, for which the self-cleavage worked out at 1.15.
The value for G34U A129U U132G was 2.04; that for A50U U87A U102C was 0.07; that for U87A U104A U115C A124U A140G was 0.08.
With A30G A59G A124C A140G, the self-cleavage worked out at 0.77.
Consider A69U U102C U132C, for which the self-cleavage was 0.
As for A67G U87A A121G, the figure is 0; as for U29C U130C U134A, 1.17; as for U5C C16A U100A U115C A124G, 0.54.
Turning to G32A U100C U130C A136G, the self-cleavage came out at 2.67.
The value for A65G A94C A138G was 0; that for C51A C71U A124G was 0.48.
As for U14A U62C U112C, the figure is 0.07.
As for A42G U115C U130G, the figure is 0; as for U52C U112C A129G, 2.3.
Take U9C U15C U109A U132C: the self-cleavage amounted to 2.22.
As for U5C U9A G35U A64G A78U, the figure is 0.25.
As for U47A U73C A140G, the figure is 1.46.
The value for A43G U81C C95A U134C A141G was 0.08.
Take A57G U112C G127U: the self-cleavage amounted to 0.47.
As for U14C G34A U85G A141G, the figure is 0.2.
On to U1C U9A A57G A138U, for which the self-cleavage was found to be 1.1.
As for U15C U85C A107U U115C, the figure is 0.
In the case of U20C U52A C103A U132G, the self-cleavage amounted to 1.28.
Regarding U62C U96C A117U, the self-cleavage was found to be 0.04.
As for C19A A24G U115C A138G U143C, the self-cleavage stood at 2.01.
As for C16A U96C A136G, the figure is 0.18; as for U14C A24G U62C U143C, 0.35; as for A22G G58A A142G, 0.03.
As for U13A A42G C98G, the self-cleavage amounted to 0.1.
The value for U9C A42G A67U C95U U134A was 0.16.
The value for U13A U14C A69G was 0.7; that for A30G C128A A140G was 0.43; that for A30U A77U U85C was 0.12.
The value for A22G U39C A43G A59G A79U was 0; that for A107G A129U A141G U143C was 0.84.
